# Measured values: PubChem BioAssay AID504333 (National Center for Advancing Translational Sciences (NCATS), 2011)
# Out of some 360,000 compounds screened, about 16,000 (4.4%) were called active. This list was built around the results that the source calls inconclusive (neither active nor inactive); the mix of calls is not that of the screen. Calls follow the shape of the dose curve; as a rule, active = well fitted inhibition curve with a large enough effect; inconclusive = small, poorly fitted or top-dose-only effect; inactive = no such curve, though single readings can be large or run the other way. Where the call is inconclusive, the potency comes from a doubtful curve fit.
# Molecular target: Bromodomain adjacent to zinc finger domain protein 2B (Homo sapiens) (UniProt Q9UIF8)
# Chain of UniProt Q9UIF8 (Q9UIF8 whole entry, looked up, the tested form may be a part): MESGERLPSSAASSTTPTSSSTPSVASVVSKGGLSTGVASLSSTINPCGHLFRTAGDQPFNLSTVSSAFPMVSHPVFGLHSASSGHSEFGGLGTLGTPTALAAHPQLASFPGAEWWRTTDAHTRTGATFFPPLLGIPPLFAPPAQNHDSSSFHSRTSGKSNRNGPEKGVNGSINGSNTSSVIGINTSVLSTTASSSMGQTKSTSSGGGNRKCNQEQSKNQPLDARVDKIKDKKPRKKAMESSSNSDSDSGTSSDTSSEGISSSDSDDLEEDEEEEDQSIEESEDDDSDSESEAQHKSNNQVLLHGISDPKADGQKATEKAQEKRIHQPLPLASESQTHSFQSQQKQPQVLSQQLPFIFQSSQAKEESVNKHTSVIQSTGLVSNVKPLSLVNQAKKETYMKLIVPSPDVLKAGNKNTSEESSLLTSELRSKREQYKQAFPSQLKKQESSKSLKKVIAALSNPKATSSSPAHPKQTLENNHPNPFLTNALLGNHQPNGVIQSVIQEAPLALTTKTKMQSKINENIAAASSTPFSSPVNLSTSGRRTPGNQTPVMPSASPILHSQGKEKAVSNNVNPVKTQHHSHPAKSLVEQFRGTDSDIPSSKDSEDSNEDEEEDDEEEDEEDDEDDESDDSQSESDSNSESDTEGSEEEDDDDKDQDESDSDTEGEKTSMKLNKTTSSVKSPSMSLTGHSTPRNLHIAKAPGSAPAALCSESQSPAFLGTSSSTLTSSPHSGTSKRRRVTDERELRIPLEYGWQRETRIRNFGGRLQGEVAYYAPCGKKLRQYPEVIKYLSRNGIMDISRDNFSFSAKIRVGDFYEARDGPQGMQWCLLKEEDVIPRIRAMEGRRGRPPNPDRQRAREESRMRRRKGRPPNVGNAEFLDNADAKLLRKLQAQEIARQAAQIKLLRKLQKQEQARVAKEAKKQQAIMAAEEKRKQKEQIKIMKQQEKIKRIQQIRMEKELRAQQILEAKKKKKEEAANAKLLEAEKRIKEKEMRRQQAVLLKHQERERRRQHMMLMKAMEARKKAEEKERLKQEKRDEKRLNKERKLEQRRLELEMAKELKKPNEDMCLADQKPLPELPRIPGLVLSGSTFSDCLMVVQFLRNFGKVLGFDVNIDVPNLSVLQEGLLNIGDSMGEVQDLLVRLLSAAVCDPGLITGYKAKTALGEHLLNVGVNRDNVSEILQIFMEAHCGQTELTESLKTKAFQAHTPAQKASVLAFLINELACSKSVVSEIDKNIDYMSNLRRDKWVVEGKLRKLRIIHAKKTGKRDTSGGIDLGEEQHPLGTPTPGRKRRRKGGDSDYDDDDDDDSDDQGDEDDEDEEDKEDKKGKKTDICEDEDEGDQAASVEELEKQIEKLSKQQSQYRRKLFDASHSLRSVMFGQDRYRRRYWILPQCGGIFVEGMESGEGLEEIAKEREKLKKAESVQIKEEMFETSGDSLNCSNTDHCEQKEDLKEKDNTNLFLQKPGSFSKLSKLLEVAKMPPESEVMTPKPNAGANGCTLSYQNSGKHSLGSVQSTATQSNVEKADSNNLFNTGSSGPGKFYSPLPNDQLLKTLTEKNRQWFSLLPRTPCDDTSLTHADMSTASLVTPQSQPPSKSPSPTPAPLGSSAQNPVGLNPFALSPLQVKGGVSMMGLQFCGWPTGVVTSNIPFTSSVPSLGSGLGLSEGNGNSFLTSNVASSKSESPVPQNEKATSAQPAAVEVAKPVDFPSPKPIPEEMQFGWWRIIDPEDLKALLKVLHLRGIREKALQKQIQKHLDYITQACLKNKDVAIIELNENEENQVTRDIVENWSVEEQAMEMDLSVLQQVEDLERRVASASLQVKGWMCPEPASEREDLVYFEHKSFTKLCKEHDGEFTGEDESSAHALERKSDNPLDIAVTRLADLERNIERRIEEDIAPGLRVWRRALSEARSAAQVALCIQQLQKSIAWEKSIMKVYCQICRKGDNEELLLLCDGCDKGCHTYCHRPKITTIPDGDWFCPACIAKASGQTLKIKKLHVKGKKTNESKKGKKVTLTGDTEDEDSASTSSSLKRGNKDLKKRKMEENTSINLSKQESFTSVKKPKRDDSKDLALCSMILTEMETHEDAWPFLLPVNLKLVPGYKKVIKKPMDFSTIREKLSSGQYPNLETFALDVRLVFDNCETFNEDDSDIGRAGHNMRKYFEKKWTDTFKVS
# Experiment: qHTS Assay for Inhibitors of BAZ2B; also: nearly all actives have a fitted effect of over 60% in size
# Details: AlphaScreen BAZ2B-H3K14Ac peptide displacement; activity change, negative = inhibition: at 114 µM (top of the series)
# In short: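 BAZ2B 50 nM plus b-H3(5-23)K14Ac 50 nM, PBS pH 7.4/0.01% Tween-20, 30 min RT; compound added (max 110 uM), 30 min RT; streptavidin donor/Ni-chelate acceptor beads 10 ug/mL final, 20 min dark; AlphaScreen read.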
# % is scaled to controls: 0 for no effect and ±100 for the full control effect; potency is read from the fitted curve at half-maximal effect; tags tell the direction and shape of the fitted curve.
Structure (SMILES),Potency,"activity change, negative = inhibition"
COc1cc(NC(=O)NCCN2CCN(c3ccc(Cl)cc3)CC2)ccc1C,"inconclusive: 8.91 µM [inhibitor, full curve, poor fit]",–
COc1cccc(/C=N/NC(=O)c2cc(-c3cccn3C)n[nH]2)c1,"inconclusive: 25.1 µM [inhibitor, single point]",–
CC1CC(C)CN(C(=O)COC(=O)CCc2nc3ccccc3c(=O)[nH]2)C1 (centres undefined),–,inactive: -1.76%
S=c1[nH]nc2nnc3ccccc3n12,"inconclusive: 70.8 µM [inhibitor, single point]",–
CCc1ccccc1NC(=O)Cc1cn(C)c2ccccc12,"inconclusive: 79.4 µM [inhibitor, single point]",–
CC(=O)Oc1ccc(C(=O)Nc2cccc(-c3nnc(-c4ccco4)o3)c2)cc1,–,inactive: -29%
Nc1cc(C(F)(F)F)cc([N+](=O)[O-])c1N,"inconclusive: 35.5 µM [inhibitor, partial curve]",–
CC(=O)N1N=C2c3ccccc3CCC2C1c1ccc(F)cc1 (centres undefined),–,inactive: -8.06%
CCN(CC(=O)Nc1cccc(OC)c1)CC(=O)Nc1cccc2ccccc12,–,inactive: -19.7%
Cc1ccc(C(CC(=O)O)NC(=O)c2ccc(S(=O)(=O)N3CC(C)OC(C)C3)cc2)cc1 (centres undefined),–,inactive: 7.42%
O=C1NCCCC1C(=O)N/N=C/c1cc([N+](=O)[O-])ccc1O (centres undefined),active: 50.1 µM,–
CCNC(=O)c1c(NC(=O)Cc2coc3cc(C)ccc23)sc2c1CCCC2,–,inactive: -3%
COc1ccc(-c2oc3ccc(N4CCOCC4)cc3c2/C=C/c2ccc(OC)c(OC)c2)cc1,"inconclusive: 56.2 µM [inhibitor, partial curve, poor fit]",–
COc1cccc(C(=O)Nc2nc3nc(C)c(C)c(=O)n3[nH]2)c1,"inconclusive: 89.1 µM [inhibitor, single point]",–
CCOc1ccc(N=c2scc(-c3ccc(OC)cc3)n2CCO)cc1,"inconclusive: 8.91 µM [inhibitor, full curve]",–
Cc1cccc(C)c1NC(=O)CCS(=O)(=O)c1ccc2c(c1)CC(C)N2C(=O)C1CC1 (centres undefined),"inconclusive: 89.1 µM [inhibitor, single point]",–
CCc1ccc(-n2c(=O)c3ccccc3n3c(=S)[nH]nc23)cc1,–,inactive: -2.26%
CN(c1ccccc1)S(=O)(=O)c1cccc(C(=O)Nc2ncn[nH]2)c1,"inconclusive: 63.1 µM [inhibitor, partial curve, poor fit]",–
CC(=O)Nc1ccc(C(=O)CSc2nnc(Cc3ccccc3)o2)cc1,"inconclusive: 28.2 µM [inhibitor, single point]",–
CC(C)(C)NC(=O)NC(=O)COC(=O)c1ccco1,–,inactive: -4.5%
O=C(O)c1ccc(N/N=C/c2cc3c(cc2[N+](=O)[O-])OCO3)cc1,"inconclusive: 31.6 µM [inhibitor, partial curve]",–
CCOc1ccc(S(=O)(=O)N(C(=O)c2ccco2)c2cc3sc(=O)oc3c3ccccc23)cc1,"inconclusive: 39.8 µM [inhibitor, partial curve]",–
C/C(CC(=O)Nc1ccc2ccccc2c1)=N\NC(=O)c1ccc(O)c(O)c1,"inconclusive: 50.1 µM [inhibitor, partial curve]",–

Structure (SMILES),Potency,"activity change, negative = inhibition"
CN1CCN(S(=O)(=O)c2ccc(Oc3ccc(F)c(Cl)c3)nc2)CC1,"inconclusive: 79.4 µM [inhibitor, single point]",–
COc1ccc(C2c3c(oc4ccc(Cl)cc4c3=O)C(=O)N2CCCN(C)C)cc1OC (centres undefined),–,inactive: 0.255%
Cn1nc(C(=O)Nc2cc(Cl)ccc2N2CCCC2)c2ccccc2c1=O,"inconclusive: 12.6 µM [inhibitor, partial curve]",–
O=c1[nH]c2ccc(NCc3ccc(-c4ccc(Cl)cc4)o3)cc2[nH]1,"inconclusive: 89.1 µM [inhibitor, single point]",–
CCCCCCSc1ccc([C@H]2N[C@@](CC(C)C)(C(=O)OC)[C@H]3C(=O)N(CC)C(=O)[C@@H]23)cc1,–,inactive: -3.78%
CCOc1ccccc1Nc1nc(-c2ccc(C)cc2)c(CC(=O)O)s1,–,inactive: -8.98%
CCC(N1CCOC1=O)S(=O)(=O)c1ccc(C)cc1 (centres undefined),"inconclusive: 100 µM [inhibitor, single point]",–
CN(C)c1ccc(NC2=C([N+](=O)[O-])CS(=O)(=O)C2)cc1,"inconclusive: 56.2 µM [inhibitor, partial curve]",–
CC(=O)C(/C=N/c1cc(-c2ccc(C)cc2)nn1-c1ccccc1)=C(\C)O,–,inactive: -4.71%
CCN(CC)c1ccc(NC(=O)CN2CCN(CC(=O)Nc3ccccc3F)CC2)cc1,"inconclusive: 39.8 µM [inhibitor, full curve]",–
Cc1cn(S(=O)(=O)c2ccccc2[N+](=O)[O-])cn1,"inconclusive: 79.4 µM [inhibitor, single point]",–
CC(CN1CCN(C)CC1)OC(=O)c1cccc(F)c1 (centres undefined),–,inactive: 3.32%
COc1cccc(NC(=O)CSc2nccn2Cc2ccc3c(c2)OCO3)c1,"inconclusive: 35.5 µM [inhibitor, partial curve]",–
Cn1cccc1CC(=O)N/N=C/C=C/c1ccccc1,"inconclusive: 50.1 µM [inhibitor, partial curve]",–
CC(=O)c1ccc(Nc2nc3ccccc3nc2-n2nc(C)cc2C)cc1,–,inactive: 13.2%
CC(=O)c1cccc(NC(=O)Cn2c(=O)oc3cc(S(=O)(=O)NC4CCCC4)ccc32)c1,–,inactive: -1.49%
Cc1ccc2nc(N3C(=O)C(O)=C(C(=O)c4ccc(C)o4)C3c3cccc(O)c3)sc2c1 (centres undefined),"inconclusive: 25.1 µM [inhibitor, full curve]",–
COc1cccc(/C=N/NC(=O)C[n+]2ccccc2)c1O,active: 17.8 µM,–
CCOC(=O)c1c(/N=C/c2ccc(O)cc2O)sc2c1CCC2,"inconclusive: 89.1 µM [inhibitor, single point]",–
O=C(c1ccc(S(=O)(=O)c2ccccc2Cl)c([N+](=O)[O-])c1)N1CCCCCC1,"inconclusive: 70.8 µM [inhibitor, single point]",–
Cn1cnc(C(=O)N2CCN(c3ccccc3)CC2)c1C(=O)N1CCN(c2ccccc2)CC1,active: 56.2 µM,–
O=C(CCc1nc2ccccc2[nH]1)Nc1ccc2c(c1)OCO2,"inconclusive: 39.8 µM [inhibitor, full curve]",–
CCOC(=O)c1sc(NC(=O)CSc2nc3ccccc3s2)c(C(=O)OCC)c1C,–,inactive: 4.43%

Structure (SMILES),Potency,"activity change, negative = inhibition"
COc1ccccc1/C=C/C=NC1C(=O)N(c2ccccc2)[N+](C)=C1C (centres undefined),"inconclusive: 79.4 µM [inhibitor, single point]",–
CCOc1cc(C2C(C(=O)Nc3ccc(OC)cc3)=C(C)Nc3nc(SC)nn32)ccc1O (centres undefined),"inconclusive: 89.1 µM [inhibitor, single point]",–
Cc1[nH]c2ccccc2c1/C=N/Nc1ccc([N+](=O)[O-])cc1,"inconclusive: 89.1 µM [inhibitor, single point]",–
Cc1ccc(-n2[nH]c(C)c(C=Nc3ccc(S(=O)(=O)Nc4nccs4)cc3)c2=O)cc1C,"inconclusive: 39.8 µM [inhibitor, partial curve]",–
Cc1cc(C)c2[nH]c(=O)c(C(c3nnnn3CC3CCCO3)N3CCCC(C)C3)cc2c1 (centres undefined),–,inactive: -6.09%
CCOC(=O)N1CCN(C(=O)CCn2c(=S)[nH]c3ccccc3c2=O)CC1,–,inactive: -4.51%
Cc1ccc2c(=O)cc(C(=O)Nc3ccc(S(=O)(=O)Nc4nc(C)cc(C)n4)cc3)oc2c1,–,inactive: -31.9%
OC(COC(c1ccc(Cl)cc1)c1ccc(Cl)cc1)CN1CCN(c2ccccn2)CC1 (centres undefined),active: 50.1 µM,–
Cc1ccc(NC(=S)Nc2cccc3ccccc23)cc1,"inconclusive: 44.7 µM [inhibitor, partial curve]",–
O=C(CN(CCc1ccccc1)S(=O)(=O)c1ccc(Br)cc1)NCc1ccc(Cl)cc1,"inconclusive: 89.1 µM [inhibitor, single point]",–
NC(=O)C1CCN(c2nc(-c3ccccc3Br)cs2)CC1,"inconclusive: 89.1 µM [inhibitor, single point]",–
CCOc1ccccc1N1CCN(C(=O)c2cc3cc(OC)ccc3[nH]2)CC1,"inconclusive: 44.7 µM [inhibitor, partial curve]",–
Cc1cccc(NC(=O)CCC(=O)OCC(=O)c2ccc(Oc3ccc([N+](=O)[O-])cc3)cc2)c1,–,inactive: -3.69%
Cc1oc(-c2cccc(Cl)c2)nc1CN1CCC(C(=O)NCCCN2CCN(c3ccccc3F)CC2)CC1,"inconclusive: 56.2 µM [inhibitor, partial curve]",–
COc1ccc(CC(=O)NNC(=S)Nc2ccccc2)cc1Cl,"inconclusive: 28.2 µM [inhibitor, single point]",–
O=C1[C@H]2[C@@H](/C=C/c3ccccc3)N3C(=O)CN(Cc4ccccn4)C(=O)[C@@]3(Cc3ccccc3)[C@H]2C(=O)N1c1ccccc1,–,inactive: -18.9%
CCOc1ccc(/C=C/c2nc(C#N)c(N3CCCCC3)o2)cc1,"inconclusive: 7.08 µM [inhibitor, full curve, poor fit]",–
Cc1ccc(OCC(=O)NCC2(N3CCOCC3)CCCCC2)cc1C,"inconclusive: 79.4 µM [inhibitor, partial curve]",–
COc1cc(C)c(NC(c2ccccc2)c2ccccc2)cc1OC,active: 39.8 µM,–
CCOc1ccc(NS(=O)(=O)c2ccc(-c3cnc(C4CC4)o3)cc2)cc1,"inconclusive: 28.2 µM [inhibitor, full curve]",–
CCC1=NN2C(=N)/C(=C/c3ccc(OS(=O)(=O)c4ccccc4)c(OC)c3)C(=O)N=C2S1,–,inactive: -9.57%
Cc1cc(/C=C(/C#N)c2cccc(F)c2)c(C)n1-c1cccnc1,"inconclusive: 39.8 µM [inhibitor, partial curve]",–
CCCCC(=O)OC1=C(C(C)=O)N(Cc2ccccc2)S(=O)(=O)c2ccccc21,"inconclusive: 89.1 µM [inhibitor, single point]",–
